Laboratory results reported in PubChem BioAssay AID445 (National Center for Advancing Translational Sciences (NCATS), 2006).
The campaign covered roughly 110,000 compounds. About 40 (0.04%) were called active. Inconclusive results, whose numbers are uncertain, are shown with a selection of clear calls. Calls follow the shape of the dose curve; as a rule, active = well fitted curve in the direction sought with a large enough effect in the signal ratio (not every such curve was filed as active); inconclusive = small, poorly fitted or top-dose-only effect, or a change in a side signal; inactive = flat fitted curve, though single readings scatter; the % refers to the signal ratio. Potencies beside an inconclusive call are fits to weak or partial responses and may not hold up.

assay: IkB Signaling; conditions: ABC-DLBCL IkBa-CBG/CBR dual luciferase ratio (green luciferase fused to IkBa over red control in OCI-Ly3 lymphoma cells), 4 h; IkBa stabilization activation: at 57.1 µM (top of the series), scaled: untreated 0%, proteasome inhibitor 100% unless noted;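 as to IkBa stabilization activation: 0% = basal untreated cells and 100% = reference inhibitor full response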
Summary of the method: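 Luminescence ratio of IκBα-fused green versus native red beetle luciferase in OCI-Ly3 cells, 4 h post-doxycycline with compound; red signal alone, scaled from basal (0%) to zero light (-100%), flagged nonspecific or cytotoxic effects.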
Potency is read from the fitted curve at half-maximal effect.

| Structure (SMILES) | IkBa stabilization activation | Potency |
| --- | --- | --- |
| Cc1ccc2c(c1)c1c3n2CCN(C(=O)c2cccc(C(F)(F)F)c2)C3CCC1 (stereo not drawn) | inactive: -0.336% |  |
| CCOc1c(Cl)cc(C(=O)N(Cc2ccc(N(C)C)cc2)Cc2ccco2)cc1Cl | inconclusive: 0.307% [signal inhibitor] |  |
| COc1ccc(CNC(=O)C2CCCN(c3nnc(C)c4c(C)n(-c5ccc(C)cc5)nc34)C2)cc1 (stereo not drawn) | inconclusive: -2.11% [signal inhibitor] |  |
| Nc1ncnc2c1nc(Sc1ccc(Cl)cc1)n2[C@@H]1O[C@H]2COP(=O)(O)O[C@@H]2[C@H]1O | inactive: -1.09% |  |
| CCC(Sc1nc2ncccc2o1)C(=O)Nc1ccc(OC)c(OC)c1 (stereo not drawn) | inconclusive: 14.8% [signal inhibitor] |  |
| CCOC(=O)c1cc2sccc2n1CC(=O)N1CCc2ccccc21 | inactive: 0.729% |  |
| N#CCCn1c(=O)c(-c2cccc(C#N)c2)nc2cnc(N3CCOCC3)nc21 | inactive: 2.46% [at 11.4 µM, scaled: untreated 0%, proteasome inhibitor 100%] |  |
| CCOc1ccccc1N(C)C(=O)c1c2c(nc3ccccc13)C(=O)N(C1CCCCC1)C2 | inconclusive: 16% [signal inhibitor] |  |
| Cc1cc(C)cc(NC(=O)c2c(C)oc3nc(C)nc(N4CCCC4)c23)c1 | inconclusive: -0.394% [signal inhibitor] |  |
| CCc1ccc(OCC(=O)Nc2ncn[nH]2)c(Br)c1 | inactive: -4.76% |  |
| O=C(Nc1nc(-c2ccccc2)cs1)c1cccs1 | inconclusive: -6% [signal inhibitor] |  |
| COc1cccc(Cn2c(-c3nonc3NC(C)=O)nc3ccccc32)c1 | inconclusive: 1.72% [signal inhibitor] |  |
| COc1cccc(-c2noc(-c3cc(C(C)C)[nH]n3)n2)c1OC | inactive: -1.53% |  |
| COc1ccccc1CNC(=O)CCNS(=O)(=O)c1ccc2c(c1)oc(=O)n2C | inconclusive: 2.34% [signal inhibitor] |  |
| COc1ccc(-c2noc(C)c2-c2ccc3ccccc3n2)c(O)c1 | inconclusive: 1.59% [signal inhibitor] |  |
| O=C(COc1ccc(F)cc1)NCc1ccc2c(c1)CCN2C(=O)c1ccccc1 | inconclusive: 1.5% [signal inhibitor] |  |
| CNC(=O)c1ccc2c(c1)N(Cc1ccccc1Cl)C(=O)c1ccccc1S2 | inconclusive: 1.05% [signal inhibitor] |  |
| Cc1cccc(NC(=O)c2sc3nc(-c4cc5ccc(O)cc5oc4=O)[nH]c(=O)c3c2C)c1 |  | inconclusive: 1 µM [signal inhibitor, full curve, poor fit] |
| O=C(Cn1c(=O)nc(-c2ccccc2F)c2cc(Cl)ccc21)NCCCc1ccccc1 | inconclusive: 7.18% [signal inhibitor] |  |
| Cc1nn(-c2ccc(F)cc2)c2sc(C(=O)O)cc12 | inactive: 3.72% |  |
| Cc1nc(-n2nc(C)c(CCC(C)C)c2C)sc1C(=O)Nc1cccc(Cl)c1 | inconclusive: 1.81% [signal inhibitor] |  |
| COc1ccc(Cl)cc1NC(=O)Cn1c(=O)c2ccccc2n2nncc12 | inconclusive: 7.98% [signal inhibitor] |  |

| Structure (SMILES) | IkBa stabilization activation | Potency |
| --- | --- | --- |
| Clc1ccc(NCc2nc3ccccc3n2CCOc2ccccc2)cc1 |  | inconclusive: 6.31 µM [signal inhibitor, partial curve] |
| CCC(C(=O)Nc1ccc(C)c(Cl)c1)n1c(=O)c(-c2ccccc2NC(C)=O)nc2ccccc21 (stereo not drawn) | inactive: 1.91% |  |
| Cc1cccc(-n2nnnc2SC(C)C(=O)NCCC2=CCCCC2)c1 (stereo not drawn) | inconclusive: 0.842% [signal inhibitor] |  |
| O=C(CCS(=O)(=O)c1cc(Br)cc2c1N(C(=O)C1CC1)CC2)NCc1ccco1 |  | inconclusive: 31.6 µM [rising, single point] |
| CN1CCN(c2ncc3nc(-c4ccccc4)c(=O)n(Cc4ccc(F)cc4)c3n2)CC1 | inactive: 0.935% [at 11.4 µM, scaled: untreated 0%, proteasome inhibitor 100%] |  |
| COc1ccc(OC)c(/C=c2\sc3nc(-c4cccs4)nn3c2=O)c1 | inactive: -0.0591% |  |
| CCN(C(=O)CSc1nc2ccccc2nc1Cc1ccc(F)cc1)c1cccc(C)c1 | inconclusive: -2.17% [signal inhibitor] |  |
| CC(=O)N1CCc2cc(S(=O)(=O)NC3CCCc4ccccc43)ccc21 (stereo not drawn) | inconclusive: 3.77% [signal inhibitor] |  |
| O=C(O)Cn1nnn(-c2ccccc2)c1=S | inconclusive: 2.77% [signal inhibitor] |  |
| COc1ccc(C(=O)Nc2nc3ccccc3n2CCOc2ccc(Cl)cc2)cc1 |  | inconclusive: 2.51 µM [signal inhibitor, full curve, poor fit] |
| CCOc1ccc(N(CC)C(=O)CCc2nc(-c3ccccc3F)no2)cc1 | inconclusive: 2.76% [signal inhibitor] |  |
| CCC(Sc1nnc(-c2ccc(OC)c(OC)c2)c(-c2ccc(OC)c(OC)c2)n1)C(=O)NC1CCCC1 (stereo not drawn) | inactive: 0.12% |  |
| Cc1cccn2c(=O)cc(CSc3nnc(NC(=O)c4ccc(F)cc4)s3)nc12 | inactive: -1.13% |  |
| CCc1ccc(N/C(SCc2cccc(F)c2)=C(/C#N)C(=O)NCc2ccco2)cc1 |  | inconclusive: 15.8 µM [signal inhibitor, partial curve] |
| CCc1ccc(NC(=O)C(Cc2ccccc2)NS(=O)(=O)c2ccc3c(c2)c(=O)n(C)c(=O)n3C)cc1 (stereo not drawn) | inconclusive: 0.874% [signal inhibitor] |  |
| CCCOc1ccc(Oc2nc(NCC(C)C)nc(N(C)C)n2)nn1 | inconclusive: 2.6% [signal inhibitor] |  |
| CCn1c(SCC(=O)Nc2ccc3c(c2)c2ccccc2n3CC)nnc1-c1ccco1 | inconclusive: 1.27% [signal inhibitor] |  |
| On1onc2c3cc(-c4ccccc4)nc3ccc21 | inconclusive: -4.83% [signal inhibitor] |  |
| O=[N+]([O-])c1ccc(F)cc1F | inconclusive: 7.35% [signal activator] |  |
| CCOc1ccc(C(=O)Nc2ccc(-n3nncc3-c3ccc(OC)cc3)cc2)cc1 | inconclusive: 0.939% [signal inhibitor] |  |
| COc1ccc(CCn2c(N)c(C(=O)NCc3ccco3)c3nc4ccccc4nc32)cc1OC | inconclusive: 3.76% [signal inhibitor] |  |
